Reference: the supplement of paper PMC3334620
Over roughly 33,000 sequences, “E-score (-0.5 to 0.5)” has its median near -0.01; the highest 2% begin near 0.26. The list shows a part of the results.

Molecular target: Ste12 (UniProt P13574)
Experiment: PBM E-score (8-mer binding enrichment) (E-score (-0.5 to 0.5)); higher = stronger / more preferred TF binding; most listed sequences are background and not binding sites
Conditions: protein concentration: 200 nM; construct: GST-DNA-binding domain
How it was run: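 Full-length yeast transcription factors or their DNA-binding domains, GST-tagged and expressed with PURExpress, were applied at about 100-200 nM to universal all-10-mer Agilent arrays. These arrays had been made double-stranded by primer extension on fresh or once-stripped slides. Detection used fluorescent anti-GST, normalisation used masliner, and E-scores for ungapped eight-base words pooled with reverse complements came from the Universal PBM Analysis Suite.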

Sequence	PBM E-score
CCGGCGCC	0.1
GAGATGAA	0.156
CTTTCATA	0.205
AAGCCTCC	-0.186
GTGACAAC	0.114
TAGGGAAA	0.133
CTGTGTAA	0.0461
AATCATAT	0.0297
CAGGATAC	-0.0863
ATGACCAG	0.0602
AGATGAAC	0.098
ACGTTCGA	-0.0755
AAAATGTA	0.183
CTATATCA	0.145
GGTGGACA	-0.197
AAATTCGG	0.091
ATAGAGTG	-0.0838
CTTGATTA	0.0433
GCGGATAA	0.23
AACTCAGT	-0.0577
GACCAAAA	0.18
GAACCATC	-0.0828
CACGCGGA	0.047
CCCTGACG	0.0297
CCCGGGGC	0.0221

Sequence	PBM E-score
ATGTACAC	0.0121
GGGCTCCA	-0.182
CATATTCC	-0.0541
CAGGTACA	-0.101
ATCTATAA	0.0201
AAAGCATA	0.0128
GCTCTTAA	0.0316
GGGGTAGA	0.0991
CCTGTGAA	0.182
GATAGTCA	-0.00874
GTATGGAA	0.0049
AATAGCTA	0.0182
CCACCCAG	0.164
CCGCCAAA	0.131
AACTACAC	-0.0557
TACACAAA	0.209
ATTCGCCA	0.0486
CTGACCAC	-0.00207
GCCAAGAC	-0.0751
CTTCGAGC	-0.0108
AAAATCTC	0.119
GAGCTTAC	-0.249
GGAGGCCC	-0.275
CGCCGGGC	0.0988
AAGTCGCT	-0.0711

Sequence	PBM E-score
ATGCTAAT	-0.00204
CATTAAAA	0.27
CGTGATGA	-0.00704
GCTAACCA	-0.102
AGCCCTAG	-0.117
CGGCTCAA	-0.0208
TCACCTCA	0.0737
TATTGTAA	0.156
GGATTCAC	0.0683
ATTGGCTG	-0.0316
AGGCCTCC	-0.15
GCATGTTA	0.0274
GAAAGGTC	-0.0999
CGTGTTAG	-0.0923
ACCCTCTG	-0.0888
CTTTGCGA	0.169
AAGGCCTA	-0.215
ACTTGACG	-0.0478
GAGAGGCC	-0.191
AATTGTGT	0.0961
GGTTGATA	0.0744
AGGACGAG	-0.12
ACTCATAT	-0.0197
AAAGTGGA	-0.0616
CGCGCTTA	0.0716

Sequence	PBM E-score
CATTTACA	0.138
CTAGTTTA	0.0197
CCGACACC	-0.159
ATGAAATG	0.0682
GGCTGAAC	0.031
GCGTCTTA	-0.00211
GTACGTGA	0.0101
AGGAAGTG	0.0384
CTAAAGCC	-0.207
ATAAGTTG	0.114
ACGATGCC	-0.241
ATCAACAA	0.251
ATACGGTG	0.06
AACTACCT	0.157
GCGCAACA	-0.0976
CCGGTAAC	0.103
ACGACGTA	-0.22
ACTATACT	0.15
TTCCCCAA	0.112
CAAGTTAA	-0.00965
CAAAGGCA	-0.0872
TCGTCCAA	0.0146
ATGGGAAT	-0.202
GCATGCCA	-0.196
CAGCATCA	-0.203

Sequence	PBM E-score
GCCATTTA	-0.0394
TATTTTGA	0.185
AAACGACT	-0.0254
CTATCATA	0.114
CTGTTCAA	0.0529
CACGCTTC	-0.188
CCCATTTC	-0.108
GTGCGCTA	0.122
AAATAGCT	-0.0088
CTGCATAC	-0.189
ATACTTTA	0.225
ATCTCTAG	-0.0496
CCGTCCCC	-0.0491
CCAGGCCA	-0.168
AATGTTCG	-0.034
TAGACAAA	0.0937
AACAATGG	0.105
GCGAATAC	-0.0391
AACTCAAT	0.0764
AACTGGCA	-0.0435
CCGCATGC	0.00231
CCCAGCAG	0.0304
CGGTACCC	-0.115
CAGATAAA	0.146
GGGCGATA	-0.0958

Sequence	PBM E-score
TCAGACAA	0.161
AAACCCGG	0.188
GTGCCCCA	0.0341
AATTTCTA	0.122
GACCACCA	-0.0598
ATTGGATG	0.0752
AGGTCTTC	-0.246
GATCTTTA	0.0393
AATGGAGT	-0.144
ACCTAGCT	-0.206
ATGTCCTG	-0.00071
AAAATCAT	0.16
CGTGTACC	-0.213
CACATACG	-0.261
CAGTTGGC	-0.156
ACGCGATA	0.00646
GGCCATTA	-0.00171
AAGCAGCA	-0.28
ATTAGTCA	0.18
ATTCTGGA	0.00961
CGAGGAAC	0.0217
AGAAATGC	0.231
ACTATTAA	0.116
AATCGCAG	-0.0896
AATATCGG	0.101

Sequence	PBM E-score
GTTGCCAA	-0.0555
CGGTCTGA	0.0651
AGGCGCTA	-0.0601
CCGCCCAC	0.121
CACTCATG	0.0761
CTTGCACC	-0.0697
ACGCACAG	-0.0708
GACATTCC	-0.0914
CAAAACAA	0.0913
AAGGATGT	-0.0418
GGCGGGTA	-0.0476
AGTTCATC	-0.127
GTCTATGA	-0.00462
CCGGCAAG	-0.0708
AAATATTG	0.243
AATGATTA	0.19
AAGGATCC	-0.266
GGCGACAC	-0.077
CGTCTCGA	0.0467
CACCGTTA	-0.0893
AGGCTAAA	0.133
TATCCGAA	0.161
CCGGGTTC	-0.00368
GAGAGCCA	-0.186
GCCAGGTA	-0.127

Sequence	PBM E-score
CCAGGCTC	-0.124
AAGATCAC	-0.0426
CGAACAGA	0.214
ACCGACAT	0.0129
GTCGCGAA	-0.0274
ACCAAACC	0.203
GCGATGCA	-0.234
GAAGATCA	-0.044
AACGTTAC	0.0846
AACTATAC	0.111
GGGTGACC	-0.132
CCTGGGAG	-0.0726
AAGGGCTA	-0.165
CGAGGATC	-0.0171
CCTACTCG	-0.0396
CATAAACC	0.0477
AGGTATGG	0.0387
AAGATGCC	0.049
CTCCAAAG	-0.0333
AGGGGAAC	-0.118
ACTTTAGC	-0.139
GCTTTCCA	-0.0781
GGTTTTCA	0.311
ATGTCTAC	-0.183
AAAAAACT	0.0774

Sequence	PBM E-score
GATACATC	0.0608
ATGTTGGA	0.152
GCGTGCAC	-0.0491
ATAATGCC	0.0176
TACTCTGA	0.12
CATTTCCC	0.295
CGTCCTAA	-0.124
CGCGTTAC	0.104
GACCTAGA	-0.118
CATAACGG	-0.108
GTTAAAAC	0.174
TTCTAAAA	0.292
GGAATCAC	-0.0728
CCATCTAA	-0.0751
AGAGCACG	-0.0578
GCACGAAC	0.0154
AATCACGT	-0.0974
CGCTAGCA	-0.134
AACACTAA	0.0467
AACAACTG	0.0941
GGAAATGA	0.195
GATAAGGA	0.176
CAGATCGA	0.0171
ATGTCGGG	0.178
TGGCTGAA	0.0635

Sequence	PBM E-score
AGGCCGAG	0.0166
ATCTCTAC	0.0471
CACTGCCG	-0.0293
GACTTTAA	0.114
AGCCTGTG	-0.103
ACATCGGA	0.102
GTCATGCA	-0.106
CCCCCACG	-0.14
CAGTGCTA	-0.204
CTTCCTGC	-0.121
CTATAACC	-0.0374
CCATGCGG	-0.194
AGTTATTA	0.121
AAATTAAG	0.138
ACTGCGCC	-0.0582
ATGGAACC	0.00778
AAGTAGCA	0.0754
CCTGTCAG	-0.0127
ACGGGTCT	-0.211
AGGATTTC	-0.0183
GAAGGGCA	-0.0977
CAGTCACC	-0.126
AAAATACA	0.143
CGAATAGC	-0.159
GTCCGTTA	0.016

Sequence	PBM E-score
ACCTTGTG	-0.0411
ATAACAAA	0.252
ACAACTTA	0.053
AGACAGGG	-0.168
GTTCAACA	-0.0805
AAACACCA	0.122
ACGTAGAA	0.0901
TGAATCAA	0.227
ATCATCTC	0.0683
CTAGGTCA	-0.182
ATCGCTGG	-0.242
ACGGCCCA	-0.0919
CAGTCTAG	-0.167
AGTTTCCG	0.148
ATTGGGCA	-0.137
GGTTCCAC	-0.0251
CGCCCGGA	-0.12
CACTGCAA	-0.0732
CCATAAGG	-0.0978
AATCGGCG	-0.0488
TAAGGTCA	0.0255
ACGTCGCT	-0.241
GCGAAGGA	-0.064
AGGACTTG	-0.285
GCCCCAGC	-0.0932

Sequence	PBM E-score
AAGTTCCC	-0.152
GTATAGGA	-0.0378
CCCATCAA	0.241
TGCTGCCA	0.0489
CACCTTCC	0.0254
GAGAACAA	0.141
ACTGACGC	-0.185
AAAGTCTA	-0.0308
ATTCCACA	0.268
ACTGCTAA	-0.0314
ATAGTGCA	0.0969
AGCTCACA	-0.203
CACTAGAC	-0.0669
AGCTTTAT	0.0598
GACATTGA	0.051
AAATAGCA	-0.119
CTCGCGGA	-0.0624
CCATCCAG	-0.103
ATTTCCAA	0.0107
GGATCCTA	-0.188
AGATGGGG	-0.0563
AACTTAGA	0.081
AGCCATGC	-0.0768
CGTCTGGA	-0.149
ACGAGCGT	-0.254

Sequence	PBM E-score
ACAAAGGT	-0.0049
ACAAACGT	0.0212
ACCCCTAA	-0.135
CGAGCGCC	-0.11
AGCTGAGG	-0.229
CGAGGACC	-0.205
CCGGTTCG	-0.0907
ACACACAA	0.191
CTAACGAG	-0.0274
CCTGAACG	-0.0912
GATGCAGA	-0.196
AGGCCCCA	-0.14
CCAACCGA	0.0461
CTGAGCTC	-0.171
CGGGGAGA	0.0611
CCCTAAAG	-0.119
CACCCTAC	-0.0789
CTGGCGCC	-0.0481
CGTGATCC	-0.0313
CTGCCTTA	-0.117
ATCGGATA	0.212
CACATTGC	0.112
GCATATAA	0.0613
CTCGCTCA	0.061
CTCCGCAG	0.135

Sequence	PBM E-score
CTTCATTC	0.0983
ATATCTGG	-0.0736
ACTACGAC	-0.0122
TAAATCCA	0.00822
ATACGTGG	-0.0972
GGTTTGAC	-0.0297
CGTAGAAG	-0.0126
CTAGAGAA	0.0303
CTTAGAGA	-0.197
GGAAGCAC	-0.109
AGGGGAAT	0.151
CGACTCAC	-0.179
CATATCCC	0.0983
CGTACCTA	-0.0858
CGCAAAAG	-0.124
TATTGCAA	0.0855
GAGGATGC	-0.095
GATGCCCA	-0.0158
CAAAAGAC	0.0341
